# Experimental data taken from PubChem BioAssay AID623901 (Broad Institute, 2012).
# Screen size: about 340,000 compounds; about 470 (0.14%) were called active. The shares of active, inactive and inconclusive entries below differ from those in the screen.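 The calls were made as follows: active = mean activation of 30% or more, with every replicate also reaching 30%; inconclusive = mean activation of 30% or more but some replicate falls short; inactive = the rest.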
# Experiment: small molecules raising miR-122 sensor signal – cell-based, Huh7 psiCHECK-miR122, Renilla luciferase, single point, primary screen (AID 623901);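 also: 0% = median of neutral control wells and 100% = median of positive control wells; higher luciferase signal means stronger suppression of miR-122 activity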
# Settings: 48 h, at 12.5 µM, stronger effect = higher value
row,SMILES,activation
1,CC(C)C[C@H]1C(=O)N2CCC[C@H]2[C@]2(O)O[C@](NC(=O)[C@@H]3C=C4c5cccc6[nH]c(Br)c(c56)CC4N(C)C3)(C(C)C)C(=O)N12 (stereo partly specified),inconclusive: 33.1%
2,CN1CCS/C1=C/C=C1\SC(=S)N(CC(=O)O)C1=O,inconclusive: 37.6%
3,Cc1ccc(OCCN2CCN(c3ncnc4sc(C)c(C)c34)CC2)cc1,inconclusive: 33.4%
4,O=C(Nc1ccc(Cl)cc1)N1C[C@H]2[C@@H](c3ccccc31)[C@H](CO)N2CC1CCCCC1,inconclusive: 31.5%
5,C[C@H](CO)N1C[C@H](C)[C@@H](CN(C)C(=O)Cc2ccccn2)Oc2ncc(/C=C/c3ccccc3)cc2C1=O,inactive: 4.92%
6,CO[C@H]1CN(C)C(=O)c2cc(NC(=O)c3cccc(Oc4ccccc4)c3)ccc2OC[C@@H](C)NC[C@H]1C,inconclusive: 34.2%
7,CCC(=O)N1C[C@H]2[C@@H](c3ccccc31)[C@H](CO)N2C(=O)Nc1ccccc1F,inconclusive: 44.9%
8,COc1ccc(CCNC(=O)c2c(C)cc(=O)oc2C)cc1OC,inconclusive: 47.7%
9,O=C(Nc1ccccc1N1CCN(C(=O)c2ccc(Cl)cc2)CC1)c1cccnc1,inconclusive: 31.2%
10,C[C@@H]1CN([C@@H](C)CO)C(=O)c2cc(-c3cccnc3)cnc2O[C@@H]1CN(C)S(C)(=O)=O,inactive: -8.76%
11,COCC(=O)N(C)C[C@H]1Oc2cc(-c3ccccc3F)ccc2S(=O)(=O)N([C@@H](C)CO)C[C@@H]1C,inconclusive: 40.9%
12,COc1ccc(CN(C(=O)c2ccc(-c3ccccc3)[nH]2)C(C(=O)NCC2CCCO2)c2ccc(C)o2)cc1 (stereo unspecified),inactive: -230%
13,C[C@H](O)C#Cc1ccc2c(c1)O[C@@H](CN(C)Cc1ccc(-c3ccccc3)cc1)[C@@H](C)CN([C@H](C)CO)S2(=O)=O,inconclusive: 34.2%
14,CNC(=O)NC(=O)C(C)OC(=O)c1c2c(nc3ccccc13)/C(=C/c1cccs1)CC2 (stereo unspecified),inconclusive: 31.4%
15,COc1ccc2[nH]c(=O)c(COC(=O)c3ccco3)cc2c1,active: 30.8%
16,CO[C@@H]1CN(C)C(=O)c2ccc(NC(=O)Nc3ccccc3)cc2OC[C@H](C)N(C(C)=O)C[C@H]1C,inactive: -2.02%
17,CC(=O)N1N=C(c2c(-c3ccccc3)c3cc(Br)ccc3[nH]c2=O)CC1c1ccco1 (stereo unspecified),inconclusive: 40%
18,CNC[C@H]1Oc2cc(-c3ccccc3OC)ccc2S(=O)(=O)N([C@H](C)CO)C[C@@H]1C,inactive: -0.809%
19,CN1C(=O)c2cc(NC(=O)c3cccs3)ccc2OC[C@@H]2O[C@@H](CC(=O)NCCN3CCCCC3)CC[C@H]21,active: 83.3%
20,C[C@@H]1CN([C@@H](C)CO)S(=O)(=O)c2ccc(C#C[C@@H](C)O)cc2O[C@H]1CN(C)Cc1ccc(-c2ccccc2)cc1,active: 41.2%
21,CCCNC(=O)C[C@H]1CC[C@@H]2[C@@H](COc3ccc(NC(=O)c4ccc5c(c4)OCO5)cc3C(=O)N2C)O1,inconclusive: 38.3%

row,SMILES,activation
1,COc1cccc(NC(=O)C[C@@H]2CC[C@@H]3[C@@H](COc4ccc(NS(=O)(=O)c5cccc(F)c5)cc4C(=O)N3C)O2)c1,inconclusive: 33.3%
2,OC[C@H]1[C@@H](c2ccccc2)[C@@H](CNCC2CCC2)N1CC1CC1,inconclusive: 33.3%
3,O=C(C1CCOCC1)N1C[C@H]2[C@@H](c3ccccc31)[C@@H](CO)N2Cc1ccccc1,inconclusive: 35.3%
4,CCC(=O)N(C)C[C@@H]1Oc2ncc(C#CCC3CCCC3)cc2C(=O)N([C@H](C)CO)C[C@H]1C,inactive: 8.75%
5,CCCNC(=O)Nc1ccc2c(c1)OC[C@@H](C)N(CCC)C[C@H](C)[C@H](OC)CN(C)C2=O,inconclusive: 30.7%
6,COCC(=O)NC[C@@H]1[C@H](c2ccc(C3=CCCC3)cc2)[C@@H](CO)N1C(=O)C1CC1,inconclusive: 75%
7,C[C@H](CO)N1C[C@H](C)[C@H](CN(C)CC2CCCCC2)OCCCC[C@H](C)Oc2ccc(NC(=O)Nc3cccc4ccccc34)cc2C1=O,inconclusive: 33%
8,COCC(=O)Nc1ccc2c(c1)C(=O)N(C)[C@@H]1CC[C@@H](CC(=O)NC3Cc4ccccc4C3)O[C@@H]1CO2,active: 36.7%
9,COc1cccc(C(=O)Nc2ccc3c(c2)C(=O)N(C)[C@H]2CC[C@H](CC(=O)NCc4ccc(F)cc4)O[C@@H]2CO3)c1,active: 53.3%
10,COc1ccc(CN(C)C[C@@H]2OCCCC[C@H](C)Oc3ccc(NC(=O)Nc4ccc(C(F)(F)F)cc4)cc3C(=O)N([C@H](C)CO)C[C@@H]2C)cc1,active: 31.3%
11,C[C@@H]1CCCCO[C@@H](CN(C)CC2CCCCC2)[C@H](C)CN([C@@H](C)CO)C(=O)c2cc(NC(=O)Nc3cccc4ccccc34)ccc2O1,active: 31.1%
12,COCC#Cc1ccc2c(c1)O[C@H](CN(C)C(=O)C1CCCCC1)[C@@H](C)CN([C@@H](C)CO)S2(=O)=O,inactive: -19.1%
13,COc1ccc(CC2=CC(=O)c3ccccc3C2=O)cc1,inconclusive: 30.2%
14,COc1cc(/C=N/Nc2nc(N3CCCC3)nc(N3CCCC3)n2)ccc1O,inconclusive: 31%
15,CCN(C[C@H]1N[C@H](CO)[C@H]1c1ccc(-c2ccc(F)cc2)cc1)C(=O)COC,inconclusive: 91.7%
16,CO[C@H]1CN(C)C(=O)c2cc(NC(=O)c3ccccc3F)ccc2OC[C@@H](C)N(C)C[C@@H]1C,inconclusive: 31.6%
17,CN(C)CCCNC(=O)C[C@@H]1CC[C@@H]2[C@@H](COc3ccc(NC(=O)NC4CCCC4)cc3C(=O)N2C)O1,inconclusive: 33.3%
18,CN(Cc1cnc2nc(N)nc(N)c2n1)c1ccc(C(=O)N[C@@H](CCC(=O)O)C(=O)O)cc1,inconclusive: 30.1%
19,C/C=C/c1ccc([C@H]2[C@@H](CO)N[C@@H]2CN(C(=O)c2ccccc2F)C(C)C)cc1,inconclusive: 33.3%
20,CO[C@H]1CN(C)C(=O)c2cc(NC(C)=O)ccc2OC[C@@H](C)N(C(=O)c2ccccn2)C[C@H]1C,inconclusive: 30.6%
